Experimental data reported in PubChem BioAssay AID1851 (National Center for Advancing Translational Sciences (NCATS), 2009).
Most of the hits are listed elsewhere, so they are rarer here than in the full data. Results filed as inconclusive are left out. Active and inactive are the calls of the source. Calls come from the whole dose curve; as a rule, active = well fitted curve in the direction sought with a large enough effect; inconclusive = small, poorly fitted or top-dose-only effect, or effect the other way; inactive = no such curve, though single readings can be large or run the other way.

Biological target: Cytochrome P450 3A4 (Homo sapiens) (UniProt P08684)
Chain of UniProt P08684 (P08684 whole entry, looked up): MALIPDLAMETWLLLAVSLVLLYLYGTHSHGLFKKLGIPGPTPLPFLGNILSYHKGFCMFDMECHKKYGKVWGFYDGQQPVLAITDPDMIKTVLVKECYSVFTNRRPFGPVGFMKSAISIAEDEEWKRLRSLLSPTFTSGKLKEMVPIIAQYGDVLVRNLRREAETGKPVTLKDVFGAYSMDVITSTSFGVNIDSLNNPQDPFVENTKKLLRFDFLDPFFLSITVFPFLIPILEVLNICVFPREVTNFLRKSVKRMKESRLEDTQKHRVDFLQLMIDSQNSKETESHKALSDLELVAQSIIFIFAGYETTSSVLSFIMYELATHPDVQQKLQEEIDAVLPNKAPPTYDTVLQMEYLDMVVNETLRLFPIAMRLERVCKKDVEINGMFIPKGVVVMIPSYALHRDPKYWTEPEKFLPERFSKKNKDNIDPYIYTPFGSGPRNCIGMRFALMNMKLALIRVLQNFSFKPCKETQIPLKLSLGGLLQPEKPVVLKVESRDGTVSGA
Assay: Cytochrome panel assay with activity outcomes
Settings: recombinant CYP, pro-luciferin dealkylation, luminescence, p450-cyp3a4

Measured: activity, negative = inhibition
% is set by controls: 0 for no effect and ±100 for the full control effect.

CN1[C@@H]2CC[C@H]1CC(OC(=O)[C@@H](O)c1ccccc1)C2 (stereo partly drawn)
inactive: at 11.4 µM (top of the series) -8.01% | at 25.6 µM (top of the series) -7.14% | at 57.1 µM (top of the series) 1.4%
